Results reported in the supplement of paper PMC4967469.
The IC50 comes from the fitted curve, where viability falls to half of the control; where the fit passes the top or lowest dose, that dose stands as a limit. AUC, from the same fit, is the share of area under the viability curve across the 256-fold dose range; it is 1 without any effect and falls as sensitivity rises. A top dose marked as inferred was calculated from the reported fits.

What was measured:
Test in all cases: Viability of human cancer cell lines after 72 h of drug (GDSC screen)
XMD14-99 = compound: COc1cc(N2CCN(C)CC2)ccc1Nc1nc(N)c(C(=O)c2c(Cl)cccc2Cl)s1 [XMD14-99]; settings: top dose 10.24 µM; top dose inferred
Procedure: (§1)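 Human cancer cell lines in 384-well plates, medium with 10% serum, drug for 72 h over a 256-fold dose range (nine 2-fold or five 4-fold steps up to the top dose). Adherent lines were fixed and stained with the nucleic acid dye Syto60, suspension lines read with resazurin; signal relative to control wells, capped at 0 and 100%. One two-parameter sigmoid per drug and line, fitted in a mixed model over all curves with the slope shared within a line.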

FH535 = compound: Cc1cc([N+](=O)[O-])ccc1NS(=O)(=O)c1cc(Cl)ccc1Cl [FH535]; settings: top dose 32 µM; top dose inferred
Procedure: as §1

AT-7519 = compound: O=C(NC1CCNCC1)c1n[nH]cc1NC(=O)c1c(Cl)cccc1Cl [AT-7519]; settings: top dose 10.24 µM; top dose inferred
Procedure: as §1

Row | Cell Line | AUC (XMD14-99) | IC50 (XMD14-99) [µM] | AUC (FH535) | IC50 (FH535) [µM] | AUC (AT-7519) | IC50 (AT-7519) [µM]
1 | HDQ-P1 (breast, adherent) | 0.985 | > 10.2 | 0.717 | 9.37 | 0.904 | > 10.2
2 | SNU-423 (liver, adherent) | 0.961 | > 10.2 | 0.709 | 8.71 | 0.463 | 0.498
3 | NUGC-4 (stomach, adherent) | 0.982 | > 10.2 | 0.76 | 11.3 | 0.941 | > 10.2
4 | NCI-H28 (mesothelioma, adherent) | 0.978 | > 10.2 | 0.714 | 9.86 | 0.966 | > 10.2
5 | SW1573 (lung adenocarcinoma, adherent) | 0.981 | > 10.2 | 0.664 | 6.75 | 0.877 | > 10.2
6 | KU-19-19 (bladder, adherent) | 0.987 | > 10.2 | 0.835 | 21 | 0.687 | 2.13
7 | T98G (glioma, adherent) | 0.987 | > 10.2 | 0.721 | 8.01 | 0.889 | 10.2
8 | RERF-LC-KJ (lung adenocarcinoma, adherent) | 0.985 | > 10.2 | 0.603 | 3.87 | 0.473 | 0.54
9 | NCI-H2444 (non-small cell lung carcinoma, adherent) | 0.986 | > 10.2 | 0.966 | > 32 | 0.967 | > 10.2
10 | OSC-19 (head and neck, adherent) | 0.987 | > 10.2 | 0.791 | 15 | 0.61 | 1.3
11 | RERF-LC-Sq1 (lung squamous cell carcinoma, adherent) | 0.979 | > 10.2 | 0.927 | > 32 | 0.762 | 5.43
12 | NCI-H2405 (lung adenocarcinoma, adherent) | 0.985 | > 10.2 | 0.511 | 2.15 | 0.843 | 8.41
13 | TGBC11TKB (stomach, adherent) | 0.963 | > 10.2 | 0.876 | 25.4 | 0.726 | 2.56
14 | NCI-H2342 (lung adenocarcinoma, adherent) | 0.986 | > 10.2 | 0.631 | 4.78 | 0.851 | 9.15
15 | UACC-812 (breast, adherent) | 0.991 | > 10.2 | 0.873 | 29.1 | 0.931 | > 10.2
16 | KYSE-520 (oesophagus, adherent) | 0.982 | > 10.2 | 0.792 | 20.3 | 0.754 | 4.57
17 | LOU-NH91 (lung squamous cell carcinoma, adherent) | 0.983 | > 10.2 | 0.541 | 2.62 | 0.945 | > 10.2
18 | PA-TU-8902 (pancreas, adherent) | 0.98 | > 10.2 | 0.616 | 4.41 | 0.736 | 3.44
19 | ACHN (kidney, adherent) | 0.976 | > 10.2 | 0.647 | 5.42 | 0.86 | > 10.2

Row | Cell Line | AUC (XMD14-99) | IC50 (XMD14-99) [µM] | AUC (FH535) | IC50 (FH535) [µM] | AUC (AT-7519) | IC50 (AT-7519) [µM]
20 | COLO-783 (melanoma, adherent) | 0.99 | > 10.2 | 0.913 | > 32 | 0.857 | 7.82
21 | GMS-10 (glioma, adherent) | 0.986 | > 10.2 | 0.805 | 16 | 0.772 | 3.92
22 | HT-3 (cervix, adherent) | 0.984 | > 10.2 | 0.867 | 29.6 | 0.592 | 1.15
23 | HCC1428 (breast, adherent) | 0.988 | > 10.2 | 0.647 | 5.33 | 0.956 | > 10.2
24 | HOS (osteosarcoma, adherent) | 0.992 | > 10.2 | 0.599 | 3.55 | 0.992 | > 10.2
25 | SK-HEP-1 (liver, adherent) | 0.989 | > 10.2 | 0.565 | 2.98 | 0.988 | > 10.2
26 | NCI-H647 (non-small cell lung carcinoma, adherent) | 0.979 | > 10.2 | 0.865 | 30.4 | 0.43 | 0.408
27 | Caov-3 (ovary, adherent) | 0.987 | > 10.2 | 0.907 | > 32 | 0.693 | 2.06
28 | VMRC-MELG (melanoma, adherent) | 0.98 | > 10.2 | 0.861 | 29.3 | 0.908 | > 10.2
29 | FTC-133 (thyroid, adherent) | 0.979 | > 10.2 | 0.648 | 5.38 | 0.986 | > 10.2
30 | HT55 (large intestine, adherent) | 0.99 | > 10.2 | 0.927 | > 32 | 0.973 | > 10.2
31 | Ca9-22 (head and neck, adherent) | 0.988 | > 10.2 | 0.646 | 4.91 | 0.63 | 1.42
32 | H2804 (mesothelioma, adherent) | 0.968 | > 10.2 | 0.74 | 10.5 | 0.842 | 8.25
33 | NCI-H1734 (lung adenocarcinoma, adherent) | 0.982 | > 10.2 | 0.711 | 8.41 | 0.75 | 3.65
34 | Hs-578-T (breast, adherent) | 0.987 | > 10.2 | 0.706 | 7.92 | 0.987 | > 10.2
35 | NCI-H441 (lung adenocarcinoma, adherent) | 0.981 | > 10.2 | 0.649 | 6.17 | 0.916 | > 10.2
36 | CAL-33 (head and neck, adherent) | 0.986 | > 10.2 | 0.604 | 3.86 | 0.776 | 4.09
37 | SK-MEL-24 (melanoma, adherent) | 0.983 | > 10.2 | 0.651 | 5.78 | 0.81 | 6.82
